# Test results as given in PubChem BioAssay AID485294 (National Center for Advancing Translational Sciences (NCATS), 2010).
# Hit rate of the full screen: of about 370,000 compounds, about 150 (0.041%) were called active. The inconclusive results got no clear call from the source; some entries with a clear call stand among them for comparison. Calls follow the shape of the dose curve; as a rule, active = well fitted inhibition curve with a large enough effect; inconclusive = small, poorly fitted or top-dose-only effect; inactive = flat fitted curve, though single readings scatter. No potency is given beside an inconclusive call; the fits are too rough.
# Target: Beta-lactamase (Escherichia coli (strain K12)) (UniProt P00811)
# Test: qHTS Inhibitors of AmpC Beta-Lactamase (assay with detergent); also: nearly all actives have a fitted effect of over 25% in size;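 as to activity change, negative = inhibition: 0% = no-compound wells and -100% = no-enzyme wells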
# Conditions: AmpC hydrolysis of nitrocefin, absorbance 480 nm, 0.01% Triton; activity change, negative = inhibition: at 114 µM (top of the series)
# Method in brief: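 20 mM phosphate pH 7.0 + 0.01% (detergent screen) or 0.0001% Triton X-100; 5.3 nM AmpC reagent; cpd preinc 15 min RT; nitrocefin (800 uM stock) to start; A480 q20 s × 4 min; Activity was normalised to no-enzyme and no-compound control wells.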
# Potency is read from the fitted curve at half-maximal effect; tags tell the direction and shape of the fitted curve.
# Sequence of UniProt P00811 (P00811 whole entry, looked up): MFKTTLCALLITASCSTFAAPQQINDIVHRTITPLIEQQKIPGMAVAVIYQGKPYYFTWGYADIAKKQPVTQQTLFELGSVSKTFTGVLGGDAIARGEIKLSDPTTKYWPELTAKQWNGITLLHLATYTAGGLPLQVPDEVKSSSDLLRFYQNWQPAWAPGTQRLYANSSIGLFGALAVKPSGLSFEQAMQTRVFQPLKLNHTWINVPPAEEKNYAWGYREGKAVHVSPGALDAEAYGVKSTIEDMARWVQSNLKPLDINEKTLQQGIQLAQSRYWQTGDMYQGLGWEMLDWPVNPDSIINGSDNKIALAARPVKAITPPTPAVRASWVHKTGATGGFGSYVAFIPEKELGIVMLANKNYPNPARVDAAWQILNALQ
SMILES,"activity change, negative = inhibition",Potency
O=C(COc1ccc(F)cc1)Nc1c(C(=O)N2CCC(N3CCCCC3)CC2)oc2ccccc12,inactive: 0.59%,–
CCSc1nnc(NC(=O)c2csc3c2CCC(C)C3)s1 (stereo unspecified),–,"inconclusive [inhibitor, full curve, poor fit]"
CCOC(=O)CSc1ccc2nnc(-c3ccccc3)n2n1,–,"inconclusive [inhibitor, full curve, poor fit]"
O=S(=O)(NC1CCCCC1)c1ccc(Cl)nc1,–,"inconclusive [inhibitor, partial curve]"
O=C(CCc1ccc(O)c(O)c1)N/N=C/c1cc2c(cc1[N+](=O)[O-])OCO2,–,"inconclusive [inhibitor, full curve]"
COC(=O)/C(C#N)=C/c1c[nH]c2ccccc12,–,"inconclusive [inhibitor, single point]"
CC(=O)Nc1nnc(S(N)(=O)=O)s1,–,"inconclusive [inhibitor, single point]"
Cc1c(NC(=O)C(C)OC(=O)c2cc3c4ccccc4n(C)c3s2)c(=O)n(-c2ccccc2)n1C (stereo unspecified),–,"inconclusive [inhibitor, single point]"
COc1cc(/C=C2/SC(=S)N(Cc3ccccc3)C2=O)cc(OC)c1O,–,"inconclusive [inhibitor, full curve, poor fit]"
COc1ccc(-c2nn(-c3ccccc3)cc2/C=C/C(=O)NCCCn2ccnc2)cc1OC,inactive: -0.287%,–
COCCNC(=O)c1ccc(Cn2c(SCC(=O)NCC3CCCO3)nc3ccc(Br)cc3c2=O)cc1 (stereo unspecified),–,"inconclusive [inhibitor, full curve, poor fit]"
CCCc1nn2c(=O)cc(COC(=O)c3ccc(NC(=O)CCc4ccccc4)cc3)nc2s1,inactive: 1.36%,–
COCc1nc2sc3c(c2c(=O)[nH]1)CCCC3,–,"inconclusive [inhibitor, full curve]"
CC(Sc1nnc2ccccn12)C(=O)Nc1ccc(Cl)cn1 (stereo unspecified),–,"inconclusive [inhibitor, full curve, poor fit]"
CC(=O)N1CCN(S(=O)(=O)c2cccc(C(=O)OCC(=O)NC(=O)c3cccn3C)c2)CC1,–,"inconclusive [inhibitor, full curve]"
Cc1ccccc1-c1nc(CS(=O)(=O)CC(=O)NCc2ccc3c(c2)OCO3)c(C)o1,–,"inconclusive [inhibitor, full curve]"
COc1ccc(N2C(=O)CC(C#N)=C2N)cc1,–,"inconclusive [inhibitor, full curve, poor fit]"
CCc1ccc2oc(-c3cccc(NC(=O)c4cc5ccccc5o4)c3)nc2c1,inactive: -1.01%,–
COc1nc(N=C(N)N)nc2ccc(C)cc12,inactive: -1.25%,–
CC(C)COC(=O)NC1c2ccccc2Oc2ccccc21,–,"inconclusive [inhibitor, single point]"
COC(CNC(=O)c1ccc(CS(=O)(=O)c2ccc(C)cc2)o1)OC,inactive: -1.05%,–
CC(=O)OC1c2ccccc2C(=O)N1Cc1ccccc1 (stereo unspecified),–,"inconclusive [inhibitor, partial curve]"

SMILES,"activity change, negative = inhibition",Potency
S=C(NCCc1ccc(Cl)cc1)NC1CCCC1,inactive: 1.48%,–
CCNc1nc(NCC)n2c(SCC(=O)Nc3ccc(F)cc3)nnc2n1,inactive: -17.4%,–
CCN(CC)C(=O)C1CCCN(Cc2ccc(OC)c(C)c2)C1 (stereo unspecified),–,"inconclusive [inhibitor, full curve, poor fit]"
CCc1nnc(NC(=O)CSc2nc(C)c3c(c2C#N)CCCC3)s1,inactive: 3%,–
O=C(COc1ccc2ccccc2c1)Nc1nnc(-c2ccco2)s1,–,"inconclusive [inhibitor, single point]"
Cc1cc(C2=NNC(=NC3CC3)SC2)c(C)n1-c1c(C)n(C)n(-c2ccccc2)c1=O,–,"inconclusive [inhibitor, full curve]"
CC(C)CCOC(=O)C1C2C=CC3(CN(Cc4cccs4)C(=O)C13)O2 (stereo unspecified),–,"inconclusive [inhibitor, full curve, poor fit]"
Cc1cc(C)c2c(=O)[nH]c(SCC(=O)Nc3ccccc3)nc2n1,–,"inconclusive [inhibitor, full curve]"
Cc1ccc(S(=O)(=O)CCC(=O)Nc2ccc(Br)cc2C)cc1,inactive: 0.423%,–
O=C(NN1C(=O)/C(=C/c2ccc(O)cc2)SC1=S)c1cccc(O)c1,–,"inconclusive [inhibitor, full curve, poor fit]"
CC1CCc2sc(C(=O)NC3CCCCC3)cc2C1 (stereo unspecified),–,"inconclusive [inhibitor, full curve, poor fit]"
O=c1[nH]c(CN2CCN(c3ncccn3)CC2)nc2c(Br)cc(Br)cc12,–,"inconclusive [inhibitor, partial curve]"
COc1cc2cc(C(c3nnnn3C(C)(C)C)N3CCc4ccccc4C3)c(=O)[nH]c2cc1OC (stereo unspecified),–,"inconclusive [inhibitor, single point]"
FC(F)(F)c1ccc(Oc2ccc3c(C(F)(F)F)cc(C(F)(F)F)nc3n2)cc1,–,"inconclusive [inhibitor, single point]"
CC(CN1CCOCC1)OC(=O)c1ccc(Br)cc1 (stereo unspecified),–,"inconclusive [inhibitor, full curve, poor fit]"
COCc1[nH][nH]c(=O)c1C=Nc1ccc(OC(F)(F)F)cc1,–,"inconclusive [inhibitor, full curve, poor fit]"
CCN(CC)S(=O)(=O)c1ccc(N2CCOCC2)c(NC(=O)CCOc2ccccc2)c1,inactive: -2.02%,–
COc1ccc(OC)c(S(=O)(=O)N(C)CC(=O)N2CCOCC2)c1,–,"inconclusive [inhibitor, full curve, poor fit]"
CCN(CC)c1cc(C(F)(F)F)nc(-c2ccccn2)n1,–,"inconclusive [inhibitor, partial curve, poor fit]"
Cc1ccc(NC(=O)CCn2cccc2)cc1C,–,"inconclusive [inhibitor, partial curve, poor fit]"
Cn1c(Cl)c(/C=N/OC(=O)C2CC2)c2ccccc21,–,"inconclusive [inhibitor, full curve, poor fit]"
Cc1nnc2c3cnn(-c4ccc(Cl)cc4)c3ncn12,–,"inconclusive [inhibitor, full curve]"

SMILES,"activity change, negative = inhibition",Potency
CC(=O)Nc1ccc(S(=O)(=O)n2cnc(C)c2)cc1,–,"inconclusive [inhibitor, full curve, poor fit]"
Cc1ccccc1Nc1cc2ccccc2c(=O)[nH]1,–,"inconclusive [inhibitor, full curve, poor fit]"
Cc1c(C(=O)N2CCN(S(=O)(=O)c3ccccc3F)CC2)oc2c(Cl)cccc12,–,"inconclusive [inhibitor, full curve, poor fit]"
CCCOc1ccc(N2C(=O)CC(N3CCOCC3)C2=O)cc1 (stereo unspecified),–,"inconclusive [inhibitor, full curve, poor fit]"
O=S(=O)(c1ccc(N2CCN(S(=O)(=O)c3ccc4c(c3)OCCO4)CC2)nc1)N1CCCC1,–,"inconclusive [inhibitor, full curve]"
COc1ccc(OC)c(C(c2c(O)nc(SC)[nH]c2=O)c2c(O)nc(SC)[nH]c2=O)c1,inactive: -8.93%,–
NS(=O)(=O)c1ccc(CCNC(=O)COC(=O)Cc2ccc([N+](=O)[O-])cc2)cc1,–,"inconclusive [inhibitor, full curve, poor fit]"
CN(C)Cc1c(O)c(Cl)cc2c3c(c(=O)oc12)CCCC3,–,"inconclusive [inhibitor, single point]"
Cc1ccc(N/C=C/C(=O)c2ccc(C)cc2)cc1,inactive: 3.11%,–
CCCCNC(=O)Oc1cc(CCl)on1,–,"inconclusive [inhibitor, full curve]"
CCCCCOc1ccc(NC(=O)Cc2csc(C)n2)cc1,inactive: 12.3%,–
COc1ccc(NS(=O)(=O)c2ccc3nc(COc4ccc(C#N)cc4)[nH]c3c2)cc1,–,"inconclusive [inhibitor, full curve]"
O=Cc1cccc(OC(=O)/C=C/c2ccco2)c1,–,"inconclusive [inhibitor, single point]"
Clc1ccc2nsnc2c1NC1=NCCN1,–,"inconclusive [inhibitor, full curve, poor fit]"
COC(=O)c1ccccc1NC(=O)Cn1cnc2c(cnn2-c2ccccc2)c1=O,–,"inconclusive [inhibitor, full curve, poor fit]"
CN(C(=O)Cn1cc(S(=O)(=O)N2CCN(c3ccccc3F)CC2)c2ccccc2c1=O)c1ccc(Cl)cc1,inactive: 14.9%,–
COc1ccc2[nH]c(C)c(CCN3C(=O)OC(C)(C)C3(C)O)c2c1 (stereo unspecified),–,"inconclusive [inhibitor, full curve]"
COc1cc(/C=N/NC(=O)c2cnccn2)ccc1O,–,"inconclusive [inhibitor, partial curve, poor fit]"
Cc1nn(C)c(C)c1S(=O)(=O)N1CCC(C(=O)Nc2ccc3c(c2)OCCO3)CC1,–,"inconclusive [inhibitor, partial curve, poor fit]"
COCCn1c(SCCN2CCOCC2)nc2c1c(=O)[nH]c(=O)n2C,–,"inconclusive [inhibitor, full curve]"
COc1cc2c(cc1O)C[C@H]1NCCc3cc4c(c-2c31)OCO4,–,"inconclusive [inhibitor, full curve, poor fit]"
O=C(COC(=O)c1ccc(N2CCCC2=O)cc1)c1ccccc1,–,"inconclusive [inhibitor, full curve, poor fit]"
